Data: publication PMC4336329 (PLoS ONE, 2015)
The whole screen tested about 310,000 compounds, of which about 14,000 (4.5%) showed an effect of 50% or more. The effect is printed as a negative number. Some of the results follow.

biological target: human ether-à-go-go-related gene (hERG) potassium channel (human, UniProt Q12809); test: primary screen, population patch clamp on CHO cells stably expressing hERG
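Note: peak tail current of the secondary pulse compared with the same well before compound.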

Chain of human ether-à-go-go-related gene (hERG) potassium channel (Q12809 whole entry, looked up): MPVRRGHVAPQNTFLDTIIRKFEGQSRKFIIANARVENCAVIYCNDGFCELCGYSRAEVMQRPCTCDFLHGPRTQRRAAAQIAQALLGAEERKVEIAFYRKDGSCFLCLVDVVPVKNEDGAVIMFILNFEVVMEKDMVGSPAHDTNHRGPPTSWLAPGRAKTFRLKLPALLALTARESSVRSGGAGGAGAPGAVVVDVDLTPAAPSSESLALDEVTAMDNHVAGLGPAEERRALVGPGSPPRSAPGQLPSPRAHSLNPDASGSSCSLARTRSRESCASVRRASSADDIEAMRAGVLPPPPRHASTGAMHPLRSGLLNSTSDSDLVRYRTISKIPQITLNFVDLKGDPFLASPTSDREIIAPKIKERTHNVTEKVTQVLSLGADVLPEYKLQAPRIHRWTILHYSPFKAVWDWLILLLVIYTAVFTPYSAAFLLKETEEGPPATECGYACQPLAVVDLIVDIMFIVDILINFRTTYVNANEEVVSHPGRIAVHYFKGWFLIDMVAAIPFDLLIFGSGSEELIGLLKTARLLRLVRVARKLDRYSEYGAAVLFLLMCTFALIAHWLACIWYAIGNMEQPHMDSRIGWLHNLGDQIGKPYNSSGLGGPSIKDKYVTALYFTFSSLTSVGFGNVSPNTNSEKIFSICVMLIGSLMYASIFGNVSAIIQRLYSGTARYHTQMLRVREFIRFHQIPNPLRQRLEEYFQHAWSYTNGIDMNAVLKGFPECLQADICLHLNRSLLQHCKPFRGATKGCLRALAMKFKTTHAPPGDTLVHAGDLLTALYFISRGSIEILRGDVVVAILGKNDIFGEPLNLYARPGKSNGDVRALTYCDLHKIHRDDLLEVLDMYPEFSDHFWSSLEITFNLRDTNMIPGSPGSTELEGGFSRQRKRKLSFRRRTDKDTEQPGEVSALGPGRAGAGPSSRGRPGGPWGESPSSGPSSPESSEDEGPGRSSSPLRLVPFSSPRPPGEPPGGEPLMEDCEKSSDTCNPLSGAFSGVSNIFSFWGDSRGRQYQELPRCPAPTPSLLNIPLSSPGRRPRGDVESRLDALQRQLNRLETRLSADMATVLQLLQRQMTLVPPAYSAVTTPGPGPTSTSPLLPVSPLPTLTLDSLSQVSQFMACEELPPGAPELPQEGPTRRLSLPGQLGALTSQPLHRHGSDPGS

Structure (SMILES) | hERG current change (%, negative = inhibition) at 10uM [%]
CN1CCNC(=O)C1CC(=O)N1CC=C(c2ccc(F)cc2)CC1 (stereo not drawn) | -3.88
COC(=O)c1ccc(NC(=O)CSc2nnc(Cc3cccn3C)n2-c2ccc(F)cc2)cc1 | -12.7
CCc1nn2cc(C(=O)c3ccccc3O)cnc2c1-c1ccc(F)cc1 | 8.2
CCOc1ccccc1N(CC(=O)NC1CCCCC1)C(=O)CCC(=O)Nc1cc(C)ccn1 | 3.35
Cc1cccc2sc(N(CCN3CCOCC3)C(=O)CCS(=O)(=O)c3ccccc3)nc12.Cl | -13.3
COC(=O)[C@H](Cc1ccccc1)NC(=O)NCCc1ccc(S(N)(=O)=O)cc1 | 14.4
CNC(=O)Oc1cccc(-c2cn3cc(Cl)ccc3n2)c1 | -17.5
Cc1ccc(C)c(C(=O)Nc2cc(C)nn2-c2nc(C)cc(C)n2)c1 | 3.98
CN(C)S(=O)(=O)N1CCc2ccccc21 | 15.8
COc1ccc(-c2nnc3c4ccccc4c(C)nn23)cc1S(=O)(=O)N1CCN(CCO)CC1 | -26.5
Nn1c(-c2ccccc2)cc(-c2ccccc2)cc1=O | -11.9
CC1=NN(C(=O)c2ccccc2Br)C(O)(c2cccnc2)C1 (stereo not drawn) | 12.9
CN(CC(=O)Nc1ccccc1C(=O)NC1CC1)Cc1cccs1 | -23.3
COc1ccccc1NS(=O)(=O)c1cc([N+](=O)[O-])ccc1N/N=C/c1sc(N2CCOCC2)nc1-c1ccccc1 | 29.3
O=C1Nc2ccccc2/C1=C/c1nc2ccccc2c(=O)n1-c1ccc(O)cc1 | 18.6
Cc1cc(C(=O)CSc2nnc(-c3cccs3)o2)c(C)n1-c1ccccc1 | -4.94
Cc1cc(C(=O)Nc2ccc(C#N)cc2)on1 | 10.7
COc1ccc(N(C(=O)c2ccncc2)S(=O)(=O)c2ccc3c4c(cccc24)C(=O)N3C)cc1 | 8.2
Clc1ccc(-c2nnc(N3CCOCC3)o2)cc1 | -7.07
CCn1c(=O)c(C(=O)Nc2ncccc2C)c(O)c2ccccc21 | 18.6
COc1ccc2c(c1)c(CCN1C(=O)c3ccccc3C1=O)cn2C(=O)c1ccco1 | 10.4
CCc1ccc(CNC(=O)C2CCN(c3nnc(C)c4c(C)n(-c5ccc(C)cc5)nc34)CC2)cc1 | -1.17

Structure (SMILES) | hERG current change (%, negative = inhibition) at 10uM [%]
O=C(O)c1csc(Cc2ccccc2)n1 | 15.1
CC(=O)c1ccc(N2CCN(C(=O)Cn3cnc(S(=O)(=O)N4CCCCC4)c3)CC2)cc1 | 7.48
CC1(C)OC(=O)C(=CNC(Cc2c[nH]c3ccccc23)C(=O)O)C(=O)O1 (stereo not drawn) | 11.9
CC(C)Oc1ccc(CSc2nnc3n(C)c(=O)c4c5c(sc4n23)CCCC5)cc1 | -16.6
COc1ccc(C[C@H]2COC(=O)[C@@H]2Cc2ccc(OC3OC(CO)C(O)C(O)C3O)c(OC)c2)cc1OC (stereo partly drawn) | 16.1
COc1cccc(C(=O)NCCS(=O)(=O)NCc2ccc3c(c2)OCO3)c1 | -35.3
O=C(Nc1ccc2c(c1)OCO2)Nc1ccc(Br)cn1 | 3.01
NC(=O)c1nn(CC(=O)Nc2cccc(S(=O)(=O)N3CCCC3)c2)c(=O)c2ccccc12 | 3.29
COc1ccc(OCC(=O)Nc2ccccc2C(=O)N2CCCC2)cc1 | -7.38
COc1ccc(S(=O)(=O)N2CCOCC2)cc1NC(=O)c1ccccc1-c1ccc(C(F)(F)F)cc1 | 2.01
C=C(C)C(=O)Nc1cccc(C2=NOC3(C2)C[C@@H](C(N)=O)N(C(=O)/C(C)=C/C)C3)c1 (stereo partly drawn) | 16.1
Cc1ccc(C)c(N2CCN(C(=O)CCC(=O)Nc3nnc(C(F)(F)F)s3)CC2)c1 | -2.9
COC(=O)/C(C#N)=C/c1ccc(C)o1 | 14.6
Cc1ccc(S(=O)(=O)NCC(=O)NCC2CCCCC2)cc1C | 1.86
O=C(/C=C/c1ccc(Br)o1)OCc1nc2ccsc2c(=O)[nH]1 | -2.96
CCOC(=O)[C@H]1[C@H]2COc3ccccc3[C@@H]2N2C(=O)CNC(=O)[C@@]12C | 22.4
COc1ccc(CCN(CC(=O)NC(C)(C)C)C(=O)Cn2nnc(-c3ccc(C)o3)n2)cc1OC | 9.43
CCCCn1c(N)c(N(CC(C)C)C(=O)c2oc3ccc(OCC)cc3c2C)c(=O)[nH]c1=O | -1.25
COc1cc(/C=C/c2cccc[n+]2C)ccc1OCC(=O)Nc1ccccc1.[I-] | 8.86
CCC(CC)C(=O)N1CC(=O)Nc2ccc(C)cc2C1c1ccccc1 (stereo not drawn) | -38.1
CCn1ncc(-c2csc(N)n2)c1C | 0.511
C=CCn1c(SCC(=O)N(CC)C2CCS(=O)(=O)C2)nc2cc(C(=O)O)ccc2c1=O (stereo not drawn) | 5.01

Structure (SMILES) | hERG current change (%, negative = inhibition) at 10uM [%]
Nc1nc(CN2CCCCCC2)nc(Nc2ccc(F)cc2)n1 | -70.8
COc1ccc(Nc2nc3c(C)cccn3c(=O)c2C=NCc2ccccc2)cc1 | 10.7
CC1Oc2ccccc2N(CC(=O)NCCN2CCOCC2)C1=O (stereo not drawn) | -0.941
CCOC(=O)c1c(N)sn(-c2ccccc2C)c1=S | 8.27
O=C(O)Cn1nc(C(F)(F)F)c2c1CCC2 | 20.4
Cn1c(=O)c2c(nc(N3CCC(C(N)=O)CC3)n2CCSc2nc3ccccc3s2)n(C)c1=O | -9.84
CSc1nnc2n(-c3ccccc3)c(=O)c3c4c(sc3n12)CCC4 | -22.9
CC1CCN(Cc2ccc(-c3nn[nH]n3)cc2)CC1 | 21.1
O=C(Nc1cccnc1)c1cccnc1 | 16
CC(C)Oc1ccccc1/C=N/n1nnnc1N | 8.96
COC(=O)CCCCC1SCC2NC(=O)NC21O (stereo not drawn) | 9.34
C[C@]12CCC3c4ccc(OCC(=O)O)cc4CCC3C1CCC2=O (stereo partly drawn) | 11.6
CCCCNC(=S)N/N=C/c1cc(C)ccc1C | -3.11
O=C(COC(=O)Cc1cn2ccsc2n1)Nc1nc2ccccc2s1 | 8.88
CC(C)(C)NS(=O)(=O)c1ccc(NC(=O)C2CC(=O)N(CCc3ccc(F)cc3)C2)cc1 (stereo not drawn) | -7.96
O=C(O)c1cc2nccc(-c3ccco3)n2n1 | -0.9
O=C1c2oc3ccc(Br)cc3c(=O)c2C(c2cccc(F)c2)N1CCO (stereo not drawn) | -1.34
CNc1nc(-c2ccc(Cl)cc2)cs1 | 1.67
CC(C)(C)c1ccc(C2C(C(=O)c3ccco3)=C(O)C(=O)N2CC2CCCO2)cc1 (stereo not drawn) | 4.74
OCCC1CN(Cc2cc(F)ccc2-n2cccn2)CCN1Cc1ccc(F)cc1 (stereo not drawn) | -62.5
CC(=O)c1cccc(NC(=O)c2ccc3c(=O)n4c(nc3c2)CCCCC4)c1 | -75.5
CC(=O)Nc1ccc(N2CCN(Cc3ccccc3)CC2)cc1 | -14.6

Structure (SMILES) | hERG current change (%, negative = inhibition) at 10uM [%]
CC(=O)c1ccc(OCC(O)CN2CCN(Cc3ccc4c(c3)OCO4)CC2)cc1 (stereo not drawn) | -34.8
COCCNC(=S)NNC(=O)c1ccco1 | -6.88
CC(C)c1ccc(NC(=O)C(c2ccccc2)N2CCN(C(=O)c3ccco3)CC2)cc1 (stereo not drawn) | -69.8
CCN1CCc2nc(NC(=O)c3ccc4c(c3)OCCO4)sc2C1 | -7.45
CCN(CC)C(=O)c1ccc(S(=O)(=O)c2ccccc2)cc1 | 17.5
Cc1ccnc(NS(=O)(=O)c2ccc(NC(=O)CN3C(=O)CCC3=O)cc2)n1 | 10.2
COc1ccc(C(=O)CCC(=O)NCc2cc(OC)cc(OC)c2)cc1 | 23.5
CCN(CC)C(=O)CN(c1cccc(OC)c1)S(=O)(=O)c1ccc(C)cc1 | -11
Cc1[nH]c2ccccc2c1C(=O)C(=O)NCCC1=CCCCC1 | 13.1
NC(=S)N/N=C/c1ccc2c(c1)OCCO2 | 16.5
O=C(Cn1cnc2c(oc3nc4c(cc32)CCCC4)c1=O)Nc1cccc(Cl)c1 | 16.2
C=CCOc1ccccc1CN1CCSCC1 | -11.2
CCCN(CCC)C(=O)C1CCN(c2ccc(S(=O)(=O)N3CCOCC3)cc2[N+](=O)[O-])CC1 | -22.4
CSc1ccccc1C(=O)C1CCCN(C(=O)CCc2cccnc2)C1 (stereo not drawn) | 1.47
Cc1ccc(C(=O)NCc2ccco2)cc1 | 12.4
Cn1cc([N+](=O)[O-])c(C(=O)N/N=C/c2ccccc2)n1 | 4.71
O=C(O)C(F)=C1c2ccccc2-c2ccccc21 | 12.4
COc1ccc(/C=C2\C(=O)ON=C2c2ccccc2)cc1OC | 1.35
Cc1nc(Nc2ccc(S(=O)(=O)N3CCCC3)cc2)c2nnn(Cc3ccccc3)c2n1 | 27.6
Cc1c(Cl)c([N+](=O)[O-])nn1CC(=O)Nc1ccc2c(c1)OCO2 | 18.4
CCn1cc(S(=O)(=O)CC(=O)NC2CCCCC2)c2ccccc21 | 7.22
